Reference: PubChem BioAssay AID488969 (Vanderbilt High Throughput Screening Facility, 2010)
In all, about 110,000 compounds were measured (“z-score”: median about -0.1, highest 2% from about 2 on). This is one part of the list. The source made the active and inactive calls.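 The calls were made as follows: active = z-score in the third read window above 3 or below -3; inactive = the rest.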

target: Metabotropic glutamate receptor 8 (Rattus norvegicus) (UniProt P70579); test: mGluR8 Gi/Go-coupled signaling modulation – cell-based, rat, thallium flux, HTS, primary screen (AID 488969); conditions: HEK293 rat mGluR8, GIRK (G protein-gated inwardly rectifying potassium channel) thallium flux, FluoZin2; at 10 µM; stronger effect = higher value; submaximal glutamate (EC20) added with thallium
Chain of UniProt P70579 (P70579 whole entry, looked up): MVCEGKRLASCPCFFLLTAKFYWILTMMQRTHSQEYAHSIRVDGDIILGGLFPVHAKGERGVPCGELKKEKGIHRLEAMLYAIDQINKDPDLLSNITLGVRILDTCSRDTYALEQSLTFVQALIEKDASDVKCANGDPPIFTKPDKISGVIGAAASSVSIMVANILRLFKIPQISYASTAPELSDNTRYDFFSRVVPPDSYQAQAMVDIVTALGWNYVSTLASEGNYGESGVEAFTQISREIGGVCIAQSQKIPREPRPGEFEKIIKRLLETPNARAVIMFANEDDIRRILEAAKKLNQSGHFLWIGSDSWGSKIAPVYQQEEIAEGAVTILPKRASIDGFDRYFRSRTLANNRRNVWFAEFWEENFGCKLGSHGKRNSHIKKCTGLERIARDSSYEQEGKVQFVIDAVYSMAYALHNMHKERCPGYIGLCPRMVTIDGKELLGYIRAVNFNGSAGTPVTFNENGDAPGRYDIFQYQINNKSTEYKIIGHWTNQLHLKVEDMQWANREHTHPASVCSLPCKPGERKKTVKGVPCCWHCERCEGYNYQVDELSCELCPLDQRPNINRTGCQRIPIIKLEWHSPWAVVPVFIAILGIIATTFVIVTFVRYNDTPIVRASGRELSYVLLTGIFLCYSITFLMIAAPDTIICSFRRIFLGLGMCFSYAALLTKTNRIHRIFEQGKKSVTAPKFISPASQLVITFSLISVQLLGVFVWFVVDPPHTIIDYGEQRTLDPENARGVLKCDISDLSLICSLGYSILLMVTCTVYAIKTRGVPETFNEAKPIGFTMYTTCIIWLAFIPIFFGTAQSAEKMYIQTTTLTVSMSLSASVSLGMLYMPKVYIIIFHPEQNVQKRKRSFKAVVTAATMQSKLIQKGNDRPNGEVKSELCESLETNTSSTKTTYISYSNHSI

| SMILES | z-score |
| --- | --- |
| COc1ccc(NC(=O)C2CCCCN2N)cc1OCC(C)C (configuration not stated) | -0.289 |
| CCOC(=O)c1c(C)[nH]c(C(=O)COC(=O)CNC(=O)c2ccccc2Cl)c1C | -0.489 |
| Fc1cccc(Cl)c1Cn1nnc(-c2ccc3c(c2)OCO3)n1 | -0.387 |
| Cc1ccc(Cn2ncc3c(N4CCCC4)ncnc32)cc1 | -0.0624 |
| Cc1ccc2[nH]c(O)c(N=NC(=O)C(C)n3cnc4ccccc4c3=O)c2c1 (configuration not stated) | -0.491 |
| COc1ccc(/C=N/c2oc(-c3ccccc3)cc2C#N)cc1OC | 0.0441 |
| COc1cc(C(=O)N(Cc2cccnc2)Cc2cc3cc4c(cc3[nH]c2=O)OCCO4)cc(OC)c1OC | -0.13 |
| CCOC(=O)N1CCN(C(=O)c2ccc3c(=O)n(Cc4ccc(OC)cc4)c(=S)[nH]c3c2)CC1 | -0.232 |
| C/C(N)=C(/C#N)C(=O)COC(=O)C1CCC(C(C)(C)C)CC1 (configuration not stated) | 0.313 |
| Cc1c(C(=O)OCC(=O)NCc2ccc3c(c2)OCO3)cccc1[N+](=O)[O-] | -0.182 |
| CCOCCCNC(=O)C(NC(=O)CNC(C)=O)c1ccc(Cl)cc1 (configuration not stated) | 0.335 |
| O=c1c2ccccc2nc(-c2ccco2)n1-c1nc2ccccc2s1 | -0.026 |
| O=C1C2C(c3ccccc3)C=CC(c3ccccc3)C2C(=O)N1c1ccncc1 (configuration not stated) | -0.325 |
| Cc1cc(C(C)(C)C)nc2[nH]n(-c3ccccc3)c(=O)c12 | 0.0958 |
| CCOC(=O)c1sc2ncnc(NCc3ccco3)c2c1C | active: 14.7 |
| CN1CCN(C(=O)c2cccc(COc3cc(Cl)ccc3Cl)c2)CC1 | -0.0827 |
| CCc1ccccc1N(CC(=O)N1CCN(c2ccccc2F)CC1)S(C)(=O)=O | 0.265 |
| CC1(C)CC(=O)c2c(-c3cccs3)n[nH]c2C1 | -0.203 |
| Cc1ccccc1CSCC(=O)c1c(N)n(CC(C)C)c(=O)n(C)c1=O | -0.259 |
| Cc1ccc(S(=O)(=O)Cn2nnnc2C(c2ccc(F)cc2)N2CCCCC2)cc1 (configuration not stated) | -0.359 |
| Cc1cccc2c1CC(C)(C)N=C2C1=C(O)CCCC1=O | -0.000906 |
| COc1ccccc1Nc1nnc(SCc2cc(=O)n3cc(C)ccc3n2)s1 | -0.145 |
| CCCCCCNCCn1cnc2c(N)ncnc21 | -0.156 |
| CCOc1ccc(N2C(=O)CC(Sc3nc(C)cc(C)n3)C2=O)cc1 (configuration not stated) | 0.642 |

| SMILES | z-score |
| --- | --- |
| CCc1nn2cc(C(=O)c3cc(Cl)ccc3O)cnc2c1-c1ccc(F)cc1 | -0.0929 |
| CCCC(=O)NCCc1ccc(S(N)(=O)=O)cc1 | -0.248 |
| O=C(CCC(=O)N1CCc2ccccc21)N1CCc2ccccc21 | -0.329 |
| Nc1nnc(SCCOc2cccc(Br)c2)s1 | -0.0231 |
| CCC(NC(=O)C1(C)CC1(Br)Br)c1ccc(C)cc1 (configuration not stated) | -0.188 |
| O=C(Nc1nccs1)C1CCN(S(=O)(=O)c2c(Cl)cccc2Cl)CC1 | -0.0529 |
| CC1CCCCN1C(=O)Cn1c(=O)n(C2CCCCC2)c(=O)c2ccccc21 (configuration not stated) | -2.44 |
| C#CCSc1nc(-c2ccccc2)cc(C(F)(F)F)c1C#N | -0.291 |
| Nc1c(-c2ccccc2)cnc2ncnn12 | -0.133 |
| O=C(CSc1nc2[nH]ncc2c(=O)[nH]1)NCc1ccccc1Cl | -0.0848 |
| COc1cccc(-c2cc(C(=O)Nc3ccc([N+](=O)[O-])cn3)c3ccccc3n2)c1 | -0.354 |
| CC1CCCN(Cc2cnc(Cl)s2)C1 (configuration not stated) | -0.133 |
| CCOC(=O)N1CCN(C(=O)c2ccc(S(=O)(=O)c3ccc(C)cc3)c(NC(C)=O)c2)CC1 | -0.0155 |
| CCCC(=O)Nc1cccc(Oc2nc(C)cc(C)c2C#N)c1 | 0.037 |
| COCCN(CCOC)Cc1c(C)[nH]c2ccccc2c1=O | -0.106 |
| COc1ccc2c(c1)CCc1sc(NC(=O)c3ccco3)nc1-2 | 0.73 |
| Clc1ccc2c(NCc3ccco3)ncnc2c1 | -0.0149 |
| CCCN1C2CCCC1CC(NC(=S)Nc1cc(C)ccc1C)C2 (configuration not stated) | 0.489 |
| O=C(Nc1ccccc1C(F)(F)F)Nc1cccc2ccccc12 | 0.33 |
| O=C(Cn1cnc2ccccc2c1=O)N(Cc1ccco1)c1ccc(O)cc1 | -0.397 |
| COc1ccc(NC(=O)c2sc3nc(Cc4ccccc4)cc(C(F)(F)F)c3c2N)cc1OC | -0.288 |
| CCC(=O)Nc1nc(=S)ss1 | -0.101 |
| N#Cc1ccccc1CSc1nc2ccsc2c(=O)n1Cc1ccccn1 | -0.577 |
| Cc1ccc(N(CC(=O)NCCSc2nc3ccccc3s2)S(=O)(=O)c2ccccc2)c(C)c1 | 0.00154 |

| SMILES | z-score |
| --- | --- |
| NC(=O)/C(=C/c1ccco1)NC(=O)c1ccc(Br)o1 | 0.247 |
| CC(=O)NC1=NN(C(C)=O)C(c2sccc2C)S1 (configuration not stated) | -0.0119 |
| COc1ccc(NC(=O)C2CCCN(S(=O)(=O)c3ccc(C)cc3)C2)cc1OC (configuration not stated) | 0.23 |
| N#C/C(=C/c1ccccc1)c1nn(CCO)c(N)c1C#N | -0.182 |
| COc1ccc(S(=O)(=O)N2CCC(C(=O)Nc3cccc(C(C)=O)c3)CC2)cc1C | -0.556 |
| O=C(Nc1ccc(Cl)cc1C(=O)NCC1CCCO1)c1ccc(Cl)cc1Cl (configuration not stated) | -0.284 |
| O=C1C2C3C=CC(C3=C3CCCCC3)C2C(=O)N1c1ccccc1 (configuration not stated) | -0.0345 |
| C=CCn1cc(C(=O)NCCCOCC)c(=O)c2cc(S(=O)(=O)N(CC)CC)ccc21 | -0.483 |
| Cc1ccc(CCNC(=O)C2CCN(S(=O)(=O)c3c(C)nn(C)c3C)CC2)cc1 | -0.368 |
| CCOC(=O)c1ccccc1N/C=C/C(=O)c1ccccc1 | -0.792 |
| O=C(NC(C(=O)c1ccccc1)n1ccc(=O)[nH]c1=O)c1ccccc1 (configuration not stated) | -0.0844 |
| CC1CC1c1ccc(/C=C(\C#N)C(=O)Nc2ccccc2Cl)o1 (configuration not stated) | 0.799 |
| O=C(N/N=C/c1ccco1)C1CC1c1ccccc1 (configuration not stated) | -0.0248 |
| CCOc1ccc(NC(=S)Nc2ccc(C)c([N+](=O)[O-])c2)cc1 | 0.652 |
| CC1CC(C)CN(c2ncc3c(n2)CC(c2ccc(Cl)cc2)CC3=O)C1 (configuration not stated) | -0.984 |
| CC(c1ccccc1)N1C(=O)NC(NC(=O)C(C)(C)C)(C(F)(F)F)C1=O (configuration not stated) | -0.189 |
| CC(C)N1CCC(=NNC(=O)c2ccccc2[N+](=O)[O-])CC1 | 0.134 |
| Cn1nnnc1SCC(=O)N1CCCc2ccccc21 | -0.211 |
| Cc1nc(NC(=O)CSc2nnc(Cn3nnc4ccccc43)n2C)sc1C | 0.14 |
| CCN=C1SCC(=O)N1c1ccc(OC)cc1 | -0.307 |
| CN(C)c1ccc(/C=C(/C#N)C(=O)NCc2ccccc2)o1 | -0.277 |
| COC(=O)c1ccc2c(=O)sc(N3CCC(C(N)=O)CC3)nc2c1 | -0.774 |
| CN1CCN(CC(=O)O)CC1 | 0.203 |
| C[C@]12CCC3C(CC=C4C[C@@H](O)CC[C@@]43C)C1CCC2[C@]1(C)CCC(=O)O1 (some centres not stated) | 0.00243 |
